The record followed here is paper PMC4163657.

The chains behind the UniProt entries cited, without tags or fusion partners. Where a name states a change or a piece, a line headed by the entry shows the natural chain unless it says otherwise.
UniProt Q8BGT6: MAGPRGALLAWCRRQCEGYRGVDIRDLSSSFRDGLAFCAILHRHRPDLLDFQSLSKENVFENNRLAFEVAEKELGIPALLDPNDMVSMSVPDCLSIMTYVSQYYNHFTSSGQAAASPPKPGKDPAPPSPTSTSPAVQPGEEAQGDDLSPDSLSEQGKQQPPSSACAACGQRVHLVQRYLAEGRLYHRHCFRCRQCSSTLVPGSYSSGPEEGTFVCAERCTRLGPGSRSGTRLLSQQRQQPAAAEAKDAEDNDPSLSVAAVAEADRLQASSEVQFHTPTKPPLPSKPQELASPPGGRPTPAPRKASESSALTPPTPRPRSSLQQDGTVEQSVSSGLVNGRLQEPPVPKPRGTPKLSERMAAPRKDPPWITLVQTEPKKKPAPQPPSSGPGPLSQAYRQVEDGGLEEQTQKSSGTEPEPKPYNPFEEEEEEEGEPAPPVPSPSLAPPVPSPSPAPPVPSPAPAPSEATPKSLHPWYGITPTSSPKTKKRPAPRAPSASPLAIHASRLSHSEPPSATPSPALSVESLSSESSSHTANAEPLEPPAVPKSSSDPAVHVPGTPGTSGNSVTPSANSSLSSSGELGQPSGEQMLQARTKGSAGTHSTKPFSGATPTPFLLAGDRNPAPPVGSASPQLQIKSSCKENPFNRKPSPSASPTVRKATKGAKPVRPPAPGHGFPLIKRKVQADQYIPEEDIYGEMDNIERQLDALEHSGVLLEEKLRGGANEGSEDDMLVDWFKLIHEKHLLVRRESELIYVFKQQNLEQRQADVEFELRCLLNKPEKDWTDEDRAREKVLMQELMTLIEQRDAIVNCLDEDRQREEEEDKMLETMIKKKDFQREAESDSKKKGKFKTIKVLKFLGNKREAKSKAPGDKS
UniProt Q6PHN9: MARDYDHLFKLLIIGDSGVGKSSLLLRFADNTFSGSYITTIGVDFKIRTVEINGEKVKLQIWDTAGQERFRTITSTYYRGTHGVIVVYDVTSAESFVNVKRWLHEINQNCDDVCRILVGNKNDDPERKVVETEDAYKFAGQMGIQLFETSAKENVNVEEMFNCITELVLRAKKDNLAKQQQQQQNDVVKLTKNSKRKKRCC
UniProt P55258: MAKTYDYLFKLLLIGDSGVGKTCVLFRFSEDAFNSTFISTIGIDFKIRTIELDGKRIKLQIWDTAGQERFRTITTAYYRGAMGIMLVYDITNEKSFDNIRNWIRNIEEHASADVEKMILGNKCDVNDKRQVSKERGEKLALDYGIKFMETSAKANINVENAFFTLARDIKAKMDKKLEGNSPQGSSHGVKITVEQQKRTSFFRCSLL
UniProt P61028: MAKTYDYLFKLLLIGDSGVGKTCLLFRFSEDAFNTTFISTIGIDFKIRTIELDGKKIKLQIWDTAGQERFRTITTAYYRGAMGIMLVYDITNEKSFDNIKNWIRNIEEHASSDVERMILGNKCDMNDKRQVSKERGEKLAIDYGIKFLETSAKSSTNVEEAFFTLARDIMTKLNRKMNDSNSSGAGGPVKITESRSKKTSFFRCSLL
UniProt P62821: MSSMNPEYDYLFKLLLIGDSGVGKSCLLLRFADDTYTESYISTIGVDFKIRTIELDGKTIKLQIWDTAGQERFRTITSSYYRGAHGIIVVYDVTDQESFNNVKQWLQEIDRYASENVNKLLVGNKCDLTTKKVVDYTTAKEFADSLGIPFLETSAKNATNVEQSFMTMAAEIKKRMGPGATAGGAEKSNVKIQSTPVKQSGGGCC

These are yes or no findings as the source states them, for the method shown. Binding seen in cells or lysates may run through a third protein. Some results given as binding are weak or reduced against the parent protein; the word gives no strength. For some of these results: Tags and fused reporters may be left off the sequences shown.

Assay [1] addresses T7–MICAL-L1 (mouse) (UniProt Q8BGT6). Put plainly: co-IP; HA–Rab35-Q67L from COS-7 lysate held on anti-HA agarose beads, washed, then incubated 1 hr at 4°C with lysate expressing a FLAG–Rab in the absence or presence of lysate expressing T7–MICAL-L1; blots with anti-FLAG and anti-T7.
Assay [2] has the same target. Put plainly: co-IP; HA–MICAL-L1 with T7–MICAL-L1 (Fig. 2F); which copy was precipitated is not told.
For another assay, the target named is HA–Rab35-Q67L (mouse) (UniProt Q6PHN9). The experiment in a line: co-IP; HA–Rab35-Q67L from COS-7 lysate held on anti-HA agarose beads, washed, then incubated 1 hr at 4°C with lysate expressing a FLAG–Rab in the absence or presence of lysate expressing T7–MICAL-L1; blots with anti-FLAG and anti-T7.

Turning to “FLAG–Rab8A-Q67L (from UniProt P55258 1-207)”, the binding entry with T7–MICAL-L1 (mouse) [1] was “binds”.

Regarding “FLAG–Rab8B-Q67L (from UniProt P61028 1-207)”, the binding entry in the assay with T7–MICAL-L1 (mouse) [1] is given as “binds”.

Consider T7–MICAL-L1 (from UniProt Q8BGT6 1-870), for which the binding entry with T7–MICAL-L1 (mouse) [2] and with HA–Rab35-Q67L (mouse) was “binds” throughout. Consider “FLAG–Rab1A-Q70L (from UniProt P62821 1-205)”, for which the binding result with HA–Rab35-Q67L (mouse) was “no binding”.

B1: FLAG–Rab36-Q116L (protein, UniProt Q8CAM5 1-267)
chain: MRSSWTPLGPPVSQDRIITSFPKWYTPDACLQLKEHFHSRVSTACQHRNTGTAGLRLSKVVVVGDLYVGKTSLIHRLCKNVFDHDYKATIGVDFEIERFEIAGIPYSLQIWDTAGLEKFKCIASAYYRGAQVIITAFDLTDVQTLEHTRQWLEDVLRENEAGSCFIFLVGTKKDLLSGAACEQAEAEAVHLANEMQAEYWSVSAKTGENVKAFFSRVAALAFEQSVLQDLEKRPSTQSQVGDGDGDLIRIEVPKTQENKRPPGLGCC
Take B1: the binding result in the assay with T7–MICAL-L1 (mouse) [1] is recorded as “binds”.

B2: FLAG–Rab13-Q67L (protein, UniProt Q9DD03 1-202)
chain: MAKAYDHLFKLLLIGDSGVGKTCLIIRFAEDNFNSTYISTIGIDFKIRTVDIEGKRIKLQVWDTAGLERFKTITTAYYRGAMGIILVYDITDEKSFENIQNWMKSIKENASAGVERLLLGNKCDMEAKRQVQREQAEKLAREHRIRFFETSAKSSVNVDEAFSSLARDILLKTGGRRSGTNSKPSSTGLKTSDKKKNKCLLG
On to B2, for which the binding result with T7–MICAL-L1 (mouse) [1] is given as “binds”.
